Target: T1, human Nav1.7 (human)
T1 construct: voltage-gated sodium channel Nav1.7 alpha subunit, human, Uniprot, full length, codon-optimized cDNA; Twin-Strep-tag and Flag-tag in tandem at the amino terminus; no tag cleavage is described; Sample contained cannabidiol (CBD) throughout; also called hNav1.7; α1 subunit; not shown: Twin-Strep-tag, N-terminal, kept; Flag, N-terminal, kept
Test: cryo-EM structure; Nav1.7-β1-β2 co-expressed in HEK293F, purified through the Flag and Strep tags of Nav1.7 and SEC in 25 mM Tris-HCl pH 7.5, 150 mM NaCl, 0.02% GDN, 10 μM CBD; incubated with 100 μM CBD before grids; 2.8 Å
Details: both partners purified

B1: β2 subunit (natural protein)
chain: not shown
notes: source: HEK293F, transiently co-transfected with Nav1.7 and β1, co-purified with Nav1.7
binding result: binds
